Experimental data published in the supplement of paper PMC3334620.
The full ranking holds about 33,000 sequences; the median of “E-score (-0.5 to 0.5)” is about -0.056, and the highest 2% start at about 0.38. The list shows a part of the results.

Each sequence was assayed against Stb4 (UniProt P50104) (assay: PBM E-score (8-mer binding enrichment) (E-score (-0.5 to 0.5)); higher = stronger / more preferred TF binding; most listed sequences are background and not binding sites). Settings: protein concentration: 200 nM; construct: GST-DNA-binding domain.
Summary of the method: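 GST-tagged yeast TFs (full-length or DNA-binding domain) were made by PURExpress in vitro transcription/translation and applied at about 100-200 nM to universal all-10-mer Agilent arrays. The arrays were made double-stranded by primer extension, on fresh or once-stripped slides. Bound protein was detected with fluorescent anti-GST, and scans were normalised with masliner. Each ungapped eight-base word, pooled with its reverse complement, received an E-score (modified Wilcoxon-Mann-Whitney statistic) from the Universal PBM Analysis Suite.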

Sequence | PBM E-score
CCCTTCTC | -0.235
GAATCTCC | 0.234
ATCCTCCG | 0.212
GACAATAA | -0.0334
CTAGTAAC | -0.144
CGACACTC | 0.144
ATCGTCGC | -0.205
CAGCGCGG | 0.148
GAGCCGGC | 0.307
TCATGAAA | 0.0361
AGTTTATG | -0.177
CAGTTCGG | 0.409
ATGTGTCG | 0.0218
CACCTCTC | -0.192
CTAAGATA | -0.101
CGTGAGCC | -0.0227
GTTTTCGA | -0.185
CATTGGTC | -0.103
CACAAATC | -0.11
GGGGTGGA | 0.0241
AACGAAAG | 0.0571
AAAGTTCC | 0.167
TCTACAAA | -0.147
ACTTGAGA | -0.21
AATGTAGT | -0.0222

Sequence | PBM E-score
AATCTTAT | 0.0503
AACATGTA | 0.003
ATCAATTA | 0.0663
ACTTTCCG | 0.383
AGCAATAC | -0.0735
AGGTGGCG | -0.0738
ACCTTGGG | -0.0307
TGTGTGAA | -0.0844
AAGACCTA | -0.00508
ACAGCGCC | 0.0113
ACAGGTCA | -0.155
CTCGGGTA | 0.478
AATACGGG | 0.0937
CGCCCGTC | 0.265
GTGTACTA | -0.101
GTCGGAAA | 0.453
GTAAGGTA | -0.0476
GCGCCGCC | 0.048
ATTCTACG | -0.00064
CAAGCTTG | -0.136
ATGCCCTG | -0.23
GATGCGTA | 0.0235
CAGTTCTC | -0.0853
AGAGGAAT | -0.217
AGACTTTC | -0.019

Sequence | PBM E-score
CTATCTCA | -0.0155
AAACCCCC | 0.0758
ACATAATC | 0.0836
ATGAGCCG | 0.183
GAGTTCCC | 0.137
AGAGTATA | -0.25
ACCTTCTG | -0.0806
AAGTCCCA | -0.199
AATATTCA | -0.0295
CAACAGTA | -0.154
CTGAGTGA | 0.00658
AGTAGATC | 0.143
GGGGCTCA | -0.212
AAAAAGCG | 0.0317
ACCGACAA | 0.273
GCTGTCGA | -0.107
CCCTATCC | 0.0715
CACTTACA | -0.102
AAAGAAAT | -0.183
CATTTGAG | -0.0761
CACTGCTG | -0.211
ATTCCCCG | 0.254
AATTTCAT | -0.114
CGGGACCA | 0.214
CTTAGCGA | -0.0967

Sequence | PBM E-score
GCGTTGCC | 0.197
AGCGCCTG | -0.0205
GACCATTA | 0.0444
ACTTACAC | -0.158
CAATGTCG | 0.0741
AATGAGTC | -0.183
AACAAGCG | 0.0118
TACCGAAA | 0.385
CCTTACAC | -0.169
TACACAGA | -0.281
AAGAAGCT | -0.257
ATGCTTAG | -0.3
TGAGCTAA | -0.15
AGAGACAA | -0.185
GATAGGCA | -0.114
CAAACTCC | 0.234
GGAGCTAA | -0.0109
AACATGGT | -0.108
ATGGTCAG | -0.163
TATGAAAA | -0.0373
GAACTGGA | 0.19
CGCGTGAA | 0.0724
AGGATTAA | 0.0619
GGACGCCA | -0.12
CATAGGGG | -0.119

Sequence | PBM E-score
GCCGACCA | 0.207
ACAAATGA | -0.257
AGACTACT | -0.123
CGAGCCGC | 0.328
ATCCTAAC | -0.0721
AGGTAAGG | -0.294
CTCCTAAA | -0.336
CAATATTA | -0.0638
TAGGAAAA | -0.156
ACCGCTTA | -0.132
GACTTGAC | -0.0115
AATGAAGC | -0.14
CCCTGTCC | -0.224
CCGTCTTA | 0.0326
AATCGCTG | -0.0898
CGAATGTA | 0.193
AATCCCCC | -0.0384
GCGGCAAA | 0.182
ATGTAATC | -0.0173
CGCCATTA | -0.125
CTGCAAAC | -0.133
CAGCAAGA | -0.0366
AGAGATTG | -0.131
AGAGCTGA | -0.148
ATTGTTCC | 0.29

Sequence | PBM E-score
AGGCGGAG | 0.04
AGTCGGCA | 0.27
GCGCAGCC | -8e-05
AAGCTCGG | 0.439
CACCCCAG | -0.203
AATCCACA | -0.00481
CCGTCAAC | 0.13
AGGTTGGG | -0.177
TCACCCCA | -0.0405
AGTATGAC | -0.0384
AATATCCA | 0.0783
GAGTGGAC | -0.0847
GCGATGAC | -0.036
CCGTGATA | 0.171
AAAATGTG | 0.0458
ATATAGAT | -0.0087
GTCGTGTA | -0.175
AACCCACG | -0.156
CAGCCCCG | 0.113
CCATAGCC | 0.0889
CCGGCCGA | 0.356
TAGCGTCA | -0.249
ATCGGCAT | 0.359
CACTCTTC | -0.0762
GTTAATGA | -0.154

Sequence | PBM E-score
CACGCAGG | -0.106
AAGACATC | -0.0643
CGACAGCC | -0.0124
ACCCTCAC | -0.163
AAACCAGG | -0.0927
ATAGCTGA | -0.212
GATTTCCA | -0.107
AAGCTAGA | -0.219
CGCACCTC | 0.093
GGAAGATA | 0.255
CAGTTGCA | -0.145
CATGTTAC | -0.175
GTAGCAAA | -0.0766
CGTAAAAC | 0.0937
GTAGCCTA | -0.382
CGACATTA | 0.187
GCATTGAA | 0.11
GTAGCGAC | -0.111
GGCCTAGA | -0.199
AGGTAGTC | 0.0157
AGCCAGAC | -0.0305
ACTCTGAC | -0.0524
